“And” between values parts separate entries of the source, which are not always exact repeats. Identical values can stand only once. Among all 16,000 compounds or so, about 40 (0.2%) were called active. Inconclusive results (about 1%) are left out. The call rests on the fitted dose curve; in most records, active means well fitted activation curve with a large enough effect; inconclusive means small, poorly fitted or top-dose-only effect, or another doubt; inactive means no such curve, though single readings can be large or run the other way. This is one part of the list.
target: Rap guanine nucleotide exchange factor 4 (Homo sapiens) (UniProt Q8WZA2); assay: Validation qHTS for agonist of cAMP-regulated guanine nucleotide exchange factor 4 (EPAC2); conditions: EPAC2 Rap1B BODIPY-GDP exchange, fluorescence; activation: stronger effect = higher value;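 further: exchange makes BODIPY-GDP fluorescence drop when released from Rap1B; series mostly up to about 150 µM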
Sequence of UniProt Q8WZA2 (Q8WZA2 whole entry, looked up): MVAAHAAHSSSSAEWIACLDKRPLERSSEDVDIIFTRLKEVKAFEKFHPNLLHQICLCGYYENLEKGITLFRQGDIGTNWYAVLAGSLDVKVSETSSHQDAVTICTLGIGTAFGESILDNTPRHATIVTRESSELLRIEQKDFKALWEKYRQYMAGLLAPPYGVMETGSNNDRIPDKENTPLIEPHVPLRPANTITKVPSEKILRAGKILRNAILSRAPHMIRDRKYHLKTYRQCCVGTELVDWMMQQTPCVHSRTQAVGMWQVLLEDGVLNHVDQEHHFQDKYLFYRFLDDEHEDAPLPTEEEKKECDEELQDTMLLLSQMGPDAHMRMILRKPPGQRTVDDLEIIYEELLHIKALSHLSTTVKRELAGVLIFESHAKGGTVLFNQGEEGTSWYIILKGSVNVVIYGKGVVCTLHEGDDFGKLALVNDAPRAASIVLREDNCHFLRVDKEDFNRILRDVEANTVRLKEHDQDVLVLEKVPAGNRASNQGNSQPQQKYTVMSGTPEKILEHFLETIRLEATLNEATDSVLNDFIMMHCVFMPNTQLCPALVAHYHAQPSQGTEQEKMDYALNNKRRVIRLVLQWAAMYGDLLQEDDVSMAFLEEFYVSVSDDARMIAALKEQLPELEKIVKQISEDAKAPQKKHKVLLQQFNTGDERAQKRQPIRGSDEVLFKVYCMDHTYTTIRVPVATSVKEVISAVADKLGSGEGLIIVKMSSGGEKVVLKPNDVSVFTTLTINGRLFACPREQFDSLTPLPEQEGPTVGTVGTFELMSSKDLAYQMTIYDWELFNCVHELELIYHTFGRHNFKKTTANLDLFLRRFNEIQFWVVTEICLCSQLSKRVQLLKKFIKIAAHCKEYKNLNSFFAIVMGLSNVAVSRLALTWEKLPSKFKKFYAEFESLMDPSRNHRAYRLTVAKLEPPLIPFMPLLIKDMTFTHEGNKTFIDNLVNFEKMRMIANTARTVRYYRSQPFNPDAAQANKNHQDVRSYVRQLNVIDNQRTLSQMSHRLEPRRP
Outline: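 Signal normalized against 6.5 mM cAMP as agonist control. Mix of EPAC2 (100 nM), RAP1B-BODIPY-GDP (250 nM) and GDP (50 uM) was read kinetically at 480/540 nm, every 5 min over 30 min, after 5 min room-temperature incubation with compound.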
On the % scale 0 is the no-effect control and ±100 the full control effect.

activation, inactive:
Clc1cccc[n+]1CCCC[n+]1ccccc1Cl -11%, CC12CCC3c4ccc(OCc5ccccc5)cc4CCC3C1CC(O)C2O (stereo unspecified) 5.41%, O=C(c1cnccn1)N1CCC[C@@]2(CCN(Cc3cc(C(F)(F)F)cc(C(F)(F)F)c3)C2)C1 -6.14%, CN1[C@@H]2CC[C@H]1CC(OC(c1ccccc1)c1ccccc1)C2 (stereo partly specified) -14.1% and -1.76% and -24.3%, Nc1ccc(S(=O)(=O)Nc2ccccn2)cc1 -27.8% and 4.77%, Cc1c(CCO)sc[n+]1CC(=O)c1ccc(F)cc1 -31.3%, O=C(CCN1CCC(c2ccccc2)C1)c1ccc2c(c1)OCCO2 (stereo unspecified) -6.1%, O=Cc1ccc(O)cc1 -12.5%, N[C@@H](Cc1ccc(O)c(I)c1)C(=O)O -21%, OC[C@H]1O[C@H](n2cnc3c(NC4CCCC4)nc(Cl)nc32)[C@@H](O)[C@@H]1O -18.1%, Cc1cnc(C)c(-c2ccc(F)c3c2OC(CNC(=O)/C=C/c2cccs2)C3)n1 (stereo unspecified) -22.8%, CCNc1ncc2nc(-c3ccccc3)c(=O)n(C[C@H]3CCCO3)c2n1 -15%, Cc1cc(Nc2ccccc2C(=O)O)ccc1Cl -22.6%, Cc1c(C(=O)NCC(C)(C)CN(C)C)cnn1-c1nccc(-c2ccccc2F)n1 -18.3%, O=c1[nH]c(=O)c2ccccc2o1 -15.5%, O=S1(=O)c2cccc3cccc(c23)N1CCCN1CCN(c2ccc(F)cc2)CC1 -22.2%, COc1cccc(CN2CCC3(CCC(CNC(=O)c4ccccc4)O3)CC2)c1 (stereo unspecified) -6.35%, Nc1ncnc2c1ncn2C1CCCO1 (stereo unspecified) -0.22% and -42.9%, O=C1CC[C@H](O)CCN1[C@H](CSc1ccccc1)Cc1ccccc1 -32.1%, COCC1CCCN(Cc2ccc3c(c2)CN(C(=O)c2cn4ccc(C)cc4n2)CCO3)C1 (stereo unspecified) -7.53%, Cc1noc(C)c1CC(=O)N1CCOc2c(cc(-c3nc4ccccc4s3)cc2OC2CCOC2)C1 (stereo unspecified) 1.46%, Cc1cc(O)c2ccccc2c1O 10.5%, O=c1ccc2ccccc2o1 3.12% and -15.7%, COc1cccc(Cn2c(=O)c(-c3cccs3)nc3cnc(OC)nc32)c1 -7.01%, CC1(C)C=Cc2cc3ccc(=O)oc3cc2O1 -10.1%, NCCOB(c1ccccc1)c1ccccc1 -12.2% and -19.7% and -21.3%

From PubChem BioAssay AID1645887 (National Center for Advancing Translational Sciences (NCATS), 2021)
